IC50 is the fitted dose that halves viability relative to control wells, and lower means more sensitive; fits outside the tested doses are given as limits. AUC sums up the same curve from the lowest dose to the 256-fold higher top dose; values near 1 show little effect. An inferred top dose was calculated from the reported fits.
Compound: CCc1nc(-c2cccc(C)c2)c(-c2ccnc(NC(=O)c3ccccc3)c2)s1 [TAK-715]
Test: Viability of human cancer cell lines after 72 h of drug (GDSC screen)
Conditions: top dose inferred
Method: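 Human cancer cell lines in 384-well plates, medium with 10% serum, drug for 72 h over a 256-fold dose range (nine 2-fold or five 4-fold steps up to the top dose). Adherent lines were fixed and stained with the nucleic acid dye Syto60, suspension lines read with resazurin; signal relative to control wells, capped at 0 and 100%. One two-parameter sigmoid per drug and line, fitted in a mixed model over all curves with the slope shared within a line.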

| Cell Line | AUC | IC50 [µM] |
| --- | --- | --- |
| COLO-679 (melanoma, adherent, top dose 20 µM) | 0.967 | > 20 |
| COLO-680N (oesophagus, adherent, top dose 20 µM) | 0.986 | > 20 |
| COLO-684 (endometrium, suspension, top dose 20 µM) | 0.911 | > 20 |
| COLO-783 (melanoma, adherent, top dose 20 µM) | 0.964 | > 20 |
| COLO-792 (melanoma, adherent, top dose 20 µM) | 0.963 | > 20 |
| COLO-800 (melanoma, adherent, top dose 20 µM) | 0.927 | > 20 |
| COLO-824 (breast, adherent, top dose 20 µM) | 0.944 | > 20 |
| COLO-829 (melanoma, adherent, top dose 20 µM) | 0.978 | > 20 |
| COR-L23 (large cell lung carcinoma, adherent, top dose 20 µM) | 0.932 | > 20 |
| COR-L88 (small cell lung carcinoma, adherent, top dose 20 µM) | 0.944 | > 20 |
| COR-L95 (small cell lung carcinoma, adherent, top dose 20 µM) | 0.985 | > 20 |
| COR-L105 (lung adenocarcinoma, adherent, top dose 20 µM) | 0.891 | > 20 |
| COR-L279 (small cell lung carcinoma, suspension, top dose 20 µM) | 0.943 | > 20 |
| COR-L303 (small cell lung carcinoma, suspension, top dose 20 µM) | 0.938 | > 20 |
| COR-L311 (small cell lung carcinoma, suspension, top dose 20 µM) | 0.932 | > 20 |
| COR-L321 (lung, suspension, top dose 20 µM) | 0.884 | > 20 |
| CP50-MEL-B (melanoma, adherent, top dose 20 µM) | 0.977 | > 20 |
| CP66-MEL (melanoma, adherent, top dose 20 µM) | 0.974 | > 20 |
| CPC-N (small cell lung carcinoma, suspension, top dose 20 µM) | 0.974 | > 20 |
| CS1 (bone, adherent, top dose 20 µM) | 0.946 | > 20 |
| CTB-1 (B-cell lymphoma, suspension, top dose 20 µM) | 0.83 | 19.4 |

| Cell Line | AUC | IC50 [µM] |
| --- | --- | --- |
| CTV-1 (acute myeloid leukaemia, suspension, top dose 20 µM) | 0.65 | 2.97 |
| CW-2 (large intestine, adherent, top dose 20 µM) | 0.821 | 12.8 |
| Ca9-22 (head and neck, adherent, top dose 20 µM) | 0.97 | > 20 |
| Ca-Ski (cervix, adherent, top dose 20 µM) | 0.823 | 13.7 |
| CaR-1 (large intestine, adherent, top dose 20 µM) | 0.94 | > 20 |
| Calu-3 (lung adenocarcinoma, adherent, top dose 20 µM) | 0.979 | > 20 |
| Calu-6 (lung adenocarcinoma, adherent, top dose 20 µM) | 0.968 | > 20 |
| Caov-3 (ovary, adherent, top dose 20 µM) | 0.918 | > 20 |
| Caov-4 (ovary, adherent, top dose 20 µM) | 0.963 | > 20 |
| Capan-2 (pancreas, adherent, top dose 20 µM) | 0.985 | > 20 |
| ChaGo-K-1 (non-small cell lung carcinoma, adherent, top dose 20 µM) | 0.942 | > 20 |
| D-247MG (glioma, adherent, top dose 20 µM) | 0.98 | > 20 |
| D-263MG (glioma, adherent, top dose 20 µM) | 0.973 | > 20 |
| D-283MED (medulloblastoma, adherent, top dose 20 µM) | 0.974 | > 20 |
| D-336MG (glioma, adherent, top dose 20 µM) | 0.928 | > 20 |
| D-392MG (glioma, adherent, top dose 20 µM) | 0.98 | > 20 |
| D-423MG (glioma, adherent, top dose 20 µM) | 0.964 | > 20 |
| D-502MG (glioma, adherent, top dose 20 µM) | 0.976 | > 20 |
| D-542MG (glioma, adherent, top dose 20 µM) | 0.984 | > 20 |
| D-566MG (glioma, adherent, top dose 20 µM) | 0.986 | > 20 |
| DAN-G (pancreas, adherent, top dose 20 µM) | 0.983 | > 20 |

| Cell Line | AUC | IC50 [µM] |
| --- | --- | --- |
| DB (B-cell lymphoma, suspension, top dose 20 µM) | 0.813 | 12.6 |
| DBTRG-05MG (glioma, adherent, top dose 20 µM) | 0.969 | > 20 |
| DEL (lymphoid neoplasm, suspension, top dose 20 µM) | 0.917 | 18.9 |
| DG-75 (Burkitt lymphoma, suspension, top dose 20 µM) | 0.884 | > 20 |
| DJM-1 (skin, adherent, top dose 20 µM) | 0.978 | > 20 |
| DK-MG (glioma, adherent, top dose 20 µM) | 0.978 | > 20 |
| DMS-53 (small cell lung carcinoma, adherent, top dose 20 µM) | 0.981 | > 20 |
| DMS-79 (small cell lung carcinoma, suspension, top dose 20 µM) | 0.974 | > 20 |
| DMS-114 (small cell lung carcinoma, adherent, top dose 20 µM) | 0.961 | > 20 |
| DMS-273 (small cell lung carcinoma, adherent, top dose 20 µM) | 0.9 | > 20 |
| DND-41 (T-cell leukaemia, suspension, top dose 20 µM) | 0.899 | > 20 |
| DOK (head and neck, adherent, top dose 20 µM) | 0.969 | > 20 |
| DOV13 (ovary, adherent, top dose 20 µM) | 0.928 | > 20 |
| DSH1 (bladder, adherent, top dose 20 µM) | 0.952 | > 20 |
| DU-145 (prostate, adherent, top dose 20 µM) | 0.967 | > 20 |
| DU-4475 (breast, suspension, top dose 20 µM) | 0.894 | 16.2 |
| Daoy (medulloblastoma, adherent, top dose 20 µM) | 0.97 | > 20 |
| Daudi (Burkitt lymphoma, suspension, top dose 20 µM) | 0.9 | 19.8 |
| Detroit562 (head and neck, adherent, top dose 20 µM) | 0.968 | > 20 |
| DoTc2-4510 (cervix, adherent, top dose 20 µM) | 0.957 | > 20 |
| EB2 (Burkitt lymphoma, suspension, top dose 20 µM) | 0.68 | 3.76 |

| Cell Line | AUC | IC50 [µM] |
| --- | --- | --- |
| EB-3 (Burkitt lymphoma, suspension, top dose 20 µM) | 0.87 | > 20 |
| EBC-1 (lung squamous cell carcinoma, adherent, top dose 20 µM) | 0.96 | > 20 |
| EC-GI-10 (oesophagus, adherent, top dose 20 µM) | 0.946 | > 20 |
| ECC10 (stomach, suspension, top dose 20 µM) | 0.831 | 13.5 |
| EFM-19 (breast, adherent, top dose 20 µM) | 0.951 | > 20 |
| EFM-192A (breast, adherent, top dose 20 µM) | 0.941 | > 20 |
| EFO-21 (ovary, adherent, top dose 20 µM) | 0.925 | > 20 |
| EFO-27 (ovary, adherent, top dose 20 µM) | 0.917 | > 20 |
| EGI-1 (biliary tract, adherent, top dose 20 µM) | 0.903 | > 20 |
| EJM (lymphoid neoplasm, semi-adherent, top dose 20 µM) | 0.934 | > 20 |
| EKVX (lung adenocarcinoma, adherent, top dose 20 µM) | 0.961 | > 20 |
| EM-2 (chronic myeloid leukaemia, suspension, top dose 20 µM) | 0.918 | > 20 |
| EMC-BAC-1 (lung adenocarcinoma, adherent, top dose 20 µM) | 0.861 | > 20 |
| EMC-BAC-2 (lung adenocarcinoma, adherent, top dose 20 µM) | 0.933 | > 20 |
| EN (endometrium, adherent, top dose 20 µM) | 0.95 | > 20 |
| EPLC-272H (lung squamous cell carcinoma, adherent, top dose 20 µM) | 0.83 | 14.9 |
| ES1 (Ewing sarcoma, adherent, top dose 20 µM) | 0.841 | 13.6 |
| ES3 (Ewing sarcoma, adherent, top dose 20 µM) | 0.929 | > 20 |
